According to the supplement of paper PMC4967469:

Columns and labels:
Experiment in all cases: Viability of human cancer cell lines after 72 h of drug (GDSC screen)
OSI-027 = compound: COc1cccc2cc(-c3nc([C@H]4CC[C@H](C(=O)O)CC4)n4ncnc(N)c34)[nH]c12 [OSI-027]; conditions: top dose 20 µM
Description: (§1)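 Human cancer cell lines in 384-well plates, medium with 10% serum, drug for 72 h over a 256-fold dose range (nine 2-fold or five 4-fold steps up to the top dose). Adherent lines were fixed and stained with the nucleic acid dye Syto60, suspension lines read with resazurin; signal relative to control wells, capped at 0 and 100%. One two-parameter sigmoid per drug and line, fitted in a mixed model over all curves with the slope shared within a line.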

BIX02189 = compound: CN(C)Cc1cccc(N=C(c2ccccc2)c2c(O)[nH]c3cc(C(=O)N(C)C)ccc23)c1 [BIX02189]; conditions: top dose 20 µM; top dose inferred
Description: as §1

TG101348 = compound: Cc1cnc(Nc2ccc(OCCN3CCCC3)cc2)nc1Nc1cccc(S(=O)(=O)NC(C)(C)C)c1 [TG101348]; conditions: top dose 10.24 µM
Description: as §1

Doxorubicin = compound: COc1cccc2c1C(=O)c1c(O)c3c(c(O)c1C2=O)C[C@@](O)(C(=O)CO)C[C@@H]3O[C@H]1C[C@H](N)[C@H](O)[C@H](C)O1 [Doxorubicin]; conditions: top dose 1.024 µM
Description: as §1

Dimethyloxalylglycine = compound: COC(=O)CNC(=O)C(=O)OC [Dimethyloxalylglycine]; conditions: top dose 4000 µM; top dose inferred
Description: as §1

17-AAG = compound: C=CCNC1=C2C[C@@H](C)C[C@H](OC)[C@H](O)[C@@H](C)/C=C(\C)[C@H](OC(N)=O)[C@@H](OC)/C=C\C=C(/C)C(=O)NC(=CC1=O)C2=O [17-AAG]; conditions: top dose 1 µM
Description: as §1

VX-11e = compound: Cc1cnc(Nc2ccc(F)cc2Cl)nc1-c1c[nH]c(C(=O)N[C@H](CO)c2cccc(Cl)c2)c1 [VX-11e]; conditions: top dose 5.12 µM; top dose inferred
Description: as §1

Vismodegib = compound: CS(=O)(=O)c1ccc(C(=O)Nc2ccc(Cl)c(-c3ccccn3)c2)c(Cl)c1 [Vismodegib]; conditions: top dose 10 µM; top dose inferred
Description: as §1

UNC1215 = compound: O=C(c1ccc(C(=O)N2CCC(N3CCCC3)CC2)c(Nc2ccccc2)c1)N1CCC(N2CCCC2)CC1 [UNC1215]; conditions: top dose 1 µM; top dose inferred
Description: as §1

CCT018159 = compound: CCc1cc(-c2n[nH]c(C)c2-c2ccc3c(c2)OCCO3)c(O)cc1O [CCT018159]; conditions: top dose 10 µM; top dose inferred
Description: as §1

BMX-IN-1 (QL-XII-61) = compound: C=CC(=O)Nc1cc(-n2c(=O)ccc3cnc4ccc(-c5ccc(NS(C)(=O)=O)cc5)cc4c32)ccc1C [BMX-IN-1 (QL-XII-61)]; conditions: top dose 10 µM; top dose inferred
Description: as §1

Row | Cell Line | AUC (OSI-027) | IC50 (OSI-027) [µM] | AUC (BIX02189) | IC50 (BIX02189) [µM] | AUC (TG101348) | IC50 (TG101348) [µM] | AUC (Doxorubicin) | IC50 (Doxorubicin) [µM] | AUC (Dimethyloxalylglycine) | IC50 (Dimethyloxalylglycine) [µM] | AUC (17-AAG) | IC50 (17-AAG) [µM] | AUC (VX-11e) | IC50 (VX-11e) [µM] | AUC (Vismodegib) | IC50 (Vismodegib) [µM] | AUC (UNC1215) | IC50 (UNC1215) [µM] | AUC (CCT018159) | IC50 (CCT018159) [µM] | AUC (BMX-IN-1 (QL-XII-61)) | IC50 (BMX-IN-1 (QL-XII-61)) [µM]
1 | RXF393 (kidney, adherent) | 0.662 | 4.22 | 0.833 | > 20 | 0.622 | 1.59 | 0.607 | 0.141 | 0.669 | 895 | 0.579 | 0.112 | 0.846 | > 5.12 | 0.952 | > 10 | 0.973 | > 1 | 0.764 | 5.07 | 0.935 | > 10
2 | L-428 (Hodgkin lymphoma, suspension) | 0.55 | 1.69 | 0.974 | > 20 | 0.896 | 9.9 | 0.807 | 0.451 | 0.671 | 700 | 0.993 | > 1 | 0.993 | > 5.12 | 0.991 | > 10 | 0.99 | > 1 | 0.955 | > 10 | 0.989 | > 10
3 | NCI-H1623 (lung adenocarcinoma, adherent) | 0.934 | > 20 | 0.974 | > 20 | 0.976 | > 10.2 | 0.8 | 0.625 | 0.385 | 112 | 0.836 | 0.885 | 0.974 | > 5.12 | 0.985 | > 10 | 0.983 | > 1 | 0.91 | > 10 | 0.969 | > 10
4 | CS1 (bone, adherent) | 0.166 | 0.102 | 0.875 | > 20 | 0.694 | 2.4 | 0.72 | 0.293 | 0.79 | 2020 | 0.655 | 0.178 | 0.954 | > 5.12 | 0.966 | > 10 | 0.982 | > 1 | 0.869 | > 10 | 0.962 | > 10
5 | ASH-3 (thyroid, adherent) | 0.881 | > 20 | 0.988 | > 20 | 0.981 | > 10.2 | 0.394 | 0.0328 | 0.718 | 1030 | 0.816 | 0.555 | 0.988 | > 5.12 | 0.985 | > 10 | 0.987 | > 1 | 0.851 | 7.68 | 0.982 | > 10
6 | LP-1 (myeloma, suspension) | 0.251 | 0.282 | 0.964 | > 20 | 0.783 | 3.56 | 0.968 | > 1.02 | 0.446 | 183 | 0.993 | > 1 | 0.967 | > 5.12 | 0.991 | > 10 | 0.987 | > 1 | 0.973 | > 10 | 0.993 | > 10
7 | KNS-42 (glioma, adherent) | 0.897 | > 20 | 0.935 | > 20 | 0.95 | > 10.2 | 0.691 | 0.247 | 0.49 | 234 | 0.856 | > 1 | 0.973 | > 5.12 | 0.984 | > 10 | 0.978 | > 1 | 0.963 | > 10 | 0.882 | > 10
8 | IA-LM (large cell lung carcinoma, adherent) | 0.633 | 3.05 | 0.97 | > 20 | 0.966 | > 10.2 | 0.489 | 0.0596 | 0.464 | 197 | 0.975 | > 1 | 0.886 | > 5.12 | 0.972 | > 10 | 0.976 | > 1 | 0.975 | > 10 | 0.872 | > 10
9 | C2BBe1 (large intestine, adherent) | 0.37 | 0.518 | 0.938 | > 20 | 0.896 | > 10.2 | 0.815 | 0.662 | 0.753 | 1500 | 0.703 | 0.255 | 0.908 | > 5.12 | 0.883 | > 10 | 0.982 | > 1 | 0.952 | > 10 | 0.976 | > 10
10 | RO82-W-1 (thyroid, adherent) | 0.962 | > 20 | 0.971 | > 20 | 0.97 | > 10.2 | 0.844 | > 1.02 | 0.787 | 2290 | 0.749 | 0.404 | 0.982 | > 5.12 | 0.982 | > 10 | 0.978 | > 1 | 0.862 | > 10 | 0.959 | > 10
11 | SK-N-SH (neuroblastoma, adherent) | 0.392 | 0.635 | 0.949 | > 20 | 0.93 | > 10.2 | 0.489 | 0.0596 | 0.493 | 240 | 0.97 | > 1 | 0.979 | > 5.12 | 0.985 | > 10 | 0.977 | > 1 | 0.901 | > 10 | 0.973 | > 10
12 | TGW (neuroblastoma, adherent) | 0.703 | 4.24 | 0.967 | > 20 | 0.861 | 6.74 | 0.899 | 0.971 | 0.842 | 2240 | 0.991 | > 1 | 0.989 | > 5.12 | 0.97 | > 10 | 0.99 | > 1 | 0.928 | > 10 | 0.988 | > 10
13 | BT-483 (breast, adherent) | 0.514 | 1.41 | 0.965 | > 20 | 0.974 | > 10.2 | 0.917 | > 1.02 | 0.926 | > 4000 | 0.816 | > 1 | 0.973 | > 5.12 | 0.968 | > 10 | 0.975 | > 1 | 0.975 | > 10 | 0.965 | > 10
14 | EFM-192A (breast, adherent) | 0.915 | > 20 | 0.967 | > 20 | 0.985 | > 10.2 | 0.407 | 0.0346 | 0.337 | 83.2 | 0.526 | 0.0744 | 0.963 | > 5.12 | 0.979 | > 10 | 0.984 | > 1 | 0.945 | > 10 | 0.885 | > 10
15 | ES1 (Ewing sarcoma, adherent) | 0.158 | 0.114 | 0.894 | > 20 | 0.561 | 0.934 | 0.274 | 0.0147 | 0.729 | 1110 | 0.931 | > 1 | 0.954 | > 5.12 | 0.972 | > 10 | 0.985 | > 1 | 0.923 | > 10 | 0.975 | > 10
16 | TOV-21G (ovary, adherent) | 0.974 | > 20 | 0.984 | > 20 | 0.867 | > 10.2 | 0.797 | 0.532 | 0.921 | > 4000 | 0.206 | 0.00773 | 0.983 | > 5.12 | 0.939 | > 10 | 0.983 | > 1 | 0.921 | > 10 | 0.826 | 6.78
17 | JHH-1 (liver, adherent) | 0.255 | 0.231 | 0.973 | > 20 | 0.653 | 1.77 | 0.63 | 0.151 | 0.493 | 239 | 0.858 | 0.936 | 0.769 | 2.09 | 0.985 | > 10 | 0.983 | > 1 | 0.957 | > 10 | 0.934 | > 10
18 | CAL-62 (thyroid, adherent) | 0.496 | 1.22 | 0.983 | > 20 | 0.917 | > 10.2 | 0.413 | 0.0375 | 0.682 | 782 | 0.665 | 0.175 | 0.921 | > 5.12 | 0.988 | > 10 | 0.983 | > 1 | 0.857 | 7.52 | 0.89 | > 10
19 | IST-MEL1 (melanoma, adherent) | 0.465 | 0.987 | 0.951 | > 20 | 0.877 | > 10.2 | 0.375 | 0.0269 | 0.565 | 389 | 0.155 | 0.00416 | 0.971 | > 5.12 | 0.97 | > 10 | 0.976 | > 1 | 0.855 | > 10 | 0.792 | 5.54
20 | 639-V (bladder, adherent) | 0.811 | 8.69 | 0.988 | > 20 | 0.921 | > 10.2 | 0.295 | 0.0188 | 0.726 | 973 | 0.71 | 0.22 | 0.986 | > 5.12 | 0.956 | > 10 | 0.991 | > 1 | 0.887 | 8.25 | 0.856 | 6.22
21 | ES7 (Ewing sarcoma, adherent) | 0.218 | 0.182 | 0.816 | 11.4 | 0.577 | 1.05 | 0.384 | 0.0303 | 0.593 | 453 | 0.93 | > 1 | 0.833 | 3.44 | 0.944 | > 10 | 0.981 | > 1 | 0.874 | > 10 | 0.872 | 9.96
22 | EW-7 (Ewing sarcoma, semi-adherent) | 0.2 | 0.187 | 0.851 | 12.5 | 0.78 | 3.69 | 0.388 | 0.0329 | 0.667 | 684 | 0.973 | > 1 | 0.959 | > 5.12 | 0.971 | > 10 | 0.986 | > 1 | 0.989 | > 10 | 0.845 | 5.95

By IC50 is meant the dose at which the fit gives 50% viability; where the fit passes the top or lowest dose, that dose stands as a limit. The AUC spans the tested range (256-fold, ending at the top dose) of the same fit: 1 means no effect, lower means more sensitive. For some of these results: A top dose marked as inferred is not printed in the source and was worked back from the curve model.
